Source: patent US4772586A, “Novel derivatives of arginine vasopressin antagonists” (Medical College of Ohio, priority 1986, dated 1988)
Values joined by “and” are separate entries in the source; they are usually repeats but may differ in a detail not shown here. Equal entries are not always repeated. Part of at least one peptide drawing is inferred or uncertain, most often the ends. *1 amine or outer side, *2 acyl side, *3 side chain or, on linkers, in order; H or OH if unused. Where a SMILES comes first, the peptide text is derived from it. Bridges are numbered along the chain shown (N, C = ends). [ ]: non-standard residue; d: D form. The star is where a group is joined. Ethylenediamine = C(CN[*:2])N[*:1]; X1 = O=C(CC1(S[*:2])CCCCC1)[*:1]; Orn = NCCC[C@H](N)C(=O)O; NHBu = CCCCN*

Assays:
[1] = tested on: antidiuretic response to arginine vasopressin; experiment: Antagonism of the antidiuretic response to arginine vasopressin (Anti-ADH); format: in vivo, rats; conditions: for Anti-ADH Potency ED: evaluated as in Example 8; for Anti-ADH ED: Table 1, effective dose reducing response to 2x units of agonist injected 20 min after antagonist to response with 1x units
Method: Activity as antidiuretic agonists was determined by intravenous injection of the compounds being evaluated in ethanol-anesthesized water-loaded rats in accordance with Sawyer, Endocrinology, vol. 63 (1958) at 694. Antagonism of the antidiuretic response to subsequent injections of arginine vasopressin was tested by the method of Sawyer et al., Science, vol. 212 (1981) at 49.
(§1) Antagonistic potencies were determined and expressed as "effective doses" and pA2 values. The "effective dose" is defined as the dose (in nanomoles per kilogram) that reduces the response seen from 2x units of agonist injected 20 min after the dose of antagonist to the response with 1x units of agonist. Estimated in vivo "pA2 " values represent the negative logarithms of the effective doses, divided by the estimated volume of distribution (67 ml/kg).

[2] = tested on: vasopressor response to arginine vasopressin; experiment: Antagonism to the vasopressor response (Anti-VP); format: in vivo; conditions: for ED ratio: anti-VP ED relative to anti-ADH ED; for Anti-VP Potency ED: evaluated as in Example 8; for Anti-VP ED: Table 1, effective dose
Method: Antagonism to the vasopressor response was estimated in accordance with Dyckes et al., J. Med. Chem., vol. 17 (1974) at 969. The values are expressed as pA2 values, defined as in Schild et al., Br. J. Pharmacol., vol. 2 (1947) at 189.
as §1

## CC[C@H](C)[C@@H]1NC(=O)[C@H](Cc2ccccc2)NC(=O)[C@@H](Cc2ccccc2)NC(=O)CC2(CCCCC2)SSC[C@@H](C(=O)N2CCC[C@H]2C(=O)N[C@@H](CCCNC(=N)N)C(=O)N[C@@H](Cc2ccc(O)cc2)C(N)=O)NC(=O)[C@H](CC(N)=O)NC1=O [Tyr(NH2), [1-(beta-mercapto-beta,beta-cyclopentamethylenepropionic acid), 2-D-phenylalanine, 4-isoleucine, 9-tyrosinamide]-arginine vasopressin] ([dF]FINCPRY-NH2; linker N-5 via X1)
[1]; Table 2
  Anti-ADH Potency ED: 0.95 ± 0.15 nanomoles per kilogram
[2]; Table 2
  ED ratio: 3.9
  Anti-VP Potency ED: 3.7 ± 0.4 nanomoles per kilogram

## CC[C@H](C)[C@@H]1NC(=O)[C@H](Cc2ccccc2)NC(=O)[C@@H](Cc2ccccc2)NC(=O)CC2(CCCCC2)SSC[C@@H](C(=O)N2CCC[C@H]2C(=O)N[C@@H](CCCNC(=N)N)C(=O)N[C@@H](CCCN)C(N)=O)NC(=O)[C@H](CC(N)=O)NC1=O [Orn(NH2), [1-(beta-mercapto-beta,beta-cyclopentamethylenepropionic acid), 2-D-phenylalanine, 4-isoleucine, 9-ornithinamide]-arginine vasopressin] ([dF]FINCPR[Orn]-NH2; linker N-5 via X1)
[1]; Table 2
  Anti-ADH Potency ED: 0.46 ± 0.09 nanomoles per kilogram
[2]; Table 2
  ED ratio: 2.4
  Anti-VP Potency ED: 1.1 ± 0.1 nanomoles per kilogram

## CC[C@H](C)[C@@H]1NC(=O)[C@H](Cc2ccccc2)NC(=O)[C@@H](Cc2ccccc2)NC(=O)CC2(CCCCC2)SSC[C@@H](C(=O)N2CCC[C@H]2C(=O)N[C@@H](CCCNC(=N)N)C(=O)NCC(=O)NCCN)NC(=O)[C@H](CC(N)=O)NC1=O [[1-(beta-mercapto-beta,beta-cyclopentamethylenepropionic acid), 2-D-phenylalanine, 4-isoleucine, 9-glycine-N-(beta-amino)ethylamide]-arginine vasopressin] ([dF]FINCPRG-Ethylenediamine; linker N-5 via X1)
[1]; Table 4, ^+ = mixed
  Anti-ADH Potency ED: 0.57 ± 0.13 nanomoles per kilogram
[2]; Table 4
  Anti-VP Potency ED: 1.8 ± 0.3 nanomoles per kilogram
[2]; Table 4, listed as d(CH2)5 [D-Phe^2, Ile^4, Gly(NH2 CH2 CH2 NH2)^9 ]AVP
  Anti-VP Potency ED: 1.8 ± 0.03 nanomoles per kilogram

## CCOc1ccc(C[C@H]2NC(=O)CC3(CCCCC3)SSC[C@@H](C(=O)N3CCC[C@H]3C(=O)N[C@@H](CCCNC(=N)N)C(=O)NCC(=O)NCCN)NC(=O)[C@H](CC(N)=O)NC(=O)[C@H]([C@@H](C)CC)NC(=O)[C@H](Cc3ccccc3)NC2=O)cc1 [[1-(beta-mercapto-beta,beta-cyclopentamethylenepropionic acid), 2-D-(O-ethyl)tyrosine, 4-isoleucine, 9-glycine-N-(beta-amino)ethylamide]-arginine vasopressin] ([dY](Et)FINCPRG-Ethylenediamine; linker N-5 via X1)
[1]; Table 4, ^+ = mixed
  Anti-ADH Potency ED: 0.93 ± 0.09 nanomoles per kilogram
[2]; Table 4
  Anti-VP Potency ED: 0.58 ± 0.05 nanomoles per kilogram

## COc1ccc(C[C@@H]2NC(=O)CC3(CCCCC3)SSC[C@@H](C(=O)N3CCC[C@H]3C(=O)N[C@@H](CCCNC(=N)N)C(=O)NCC(=O)NCCN)NC(=O)[C@H](CC(N)=O)NC(=O)[C@H](CCC(N)=O)NC(=O)[C@H](Cc3ccccc3)NC2=O)cc1 [[1-(beta-mercapto-beta,beta-cyclopentamethylenepropionic acid), 2-(O-methyl)tyrosine, 9-glycine-N-(beta-amino)ethylamide]-arginine vasopressin] (Y(Me)FQNCPRG-Ethylenediamine; linker N-5 via X1)
[1]; Table 4, ^+ = mixed
  Anti-ADH Potency ED: ~ 16 nanomoles per kilogram and 16 ± 2 nanomoles per kilogram
[2]; Table 4
  Anti-VP Potency ED: 0.27 ± 0.03 nanomoles per kilogram

## CC[C@H](C)[C@@H]1NC(=O)[C@H](Cc2ccccc2)NC(=O)[C@@H](Cc2ccccc2)NC(=O)CC2(CCCCC2)SSC[C@@H](C(=O)N2CCC[C@H]2C(=O)N[C@@H](CCCNC(=N)N)C(=O)NCC(=O)NCC(N)=O)NC(=O)[C@H](CC(N)=O)NC1=O [[1-(beta-mercapto-beta,beta-cyclopentamethylenepropionic acid), 2-D-phenylalanine, 4-isoleucine, 9-glycine]-arginine vasopressinyl glycinamide] ([dF]FINCPRGG-NH2; linker N-5 via X1)
[1]; Table 4, ^+ = mixed
  Anti-ADH Potency ED: 0.98 ± 0.09 nanomoles per kilogram
[2]; Table 4
  Anti-VP Potency ED: 1.4 ± 0.3 nanomoles per kilogram

## CC[C@H](C)[C@@H]1NC(=O)[C@H](Cc2ccccc2)NC(=O)[C@@H](Cc2ccccc2)NC(=O)CC2(CCCCC2)SSC[C@@H](C(=O)N2CCC[C@H]2C(=O)N[C@@H](CCCNC(=N)N)C(=O)N[C@@H](Cc2ccccc2)C(N)=O)NC(=O)[C@H](CC(N)=O)NC1=O [Phe(NH2), [1-(beta-mercapto-beta,beta-cyclopentamethylenepropionic acid), 2-D-phenylalanine, 4-isoleucine, 9-phenylalaninamide]-arginine vasopressin] ([dF]FINCPRF-NH2; linker N-5 via X1)
[1]; Table 2
  Anti-ADH Potency ED: 1.5 ± 0.3 nanomoles per kilogram
[2]; Table 2
  ED ratio: 2.5
  Anti-VP Potency ED: 3.8 ± 0.9 nanomoles per kilogram

## CCOc1ccc(C[C@H]2NC(=O)CC3(CCCCC3)SSC[C@@H](C(=O)N3CCC[C@H]3C(=O)N[C@@H](CCCNC(=N)N)C(=O)O)NC(=O)[C@H](CC(N)=O)NC(=O)[C@H](C(C)C)NC(=O)[C@H](Cc3ccccc3)NC2=O)cc1 [desGly(NH2)^9 d(CH2)5 [D-Tyr(Et)^2]VAVP, [1-(beta-mercapto-beta,beta-cyclopentamethylenepropionic acid), 2-D-(O-ethyl)tyrosine, 4-valine, 9-desglycinamide]-arginine vasopressin] ([dY](Et)FVNCPR-OH; linker N-5 via X1)
[1]
  Anti-ADH ED: 1.1 ± 0.08 nmol/kg
[2]
  Anti-VP ED: 1.2 ± 0.04 nmol/kg

## CC[C@H](C)[C@@H]1NC(=O)[C@H](Cc2ccccc2)NC(=O)[C@@H](Cc2ccccc2)NC(=O)CC2(CCCCC2)SSC[C@@H](C(=O)N2CCC[C@H]2C(=O)N[C@@H](CCCNC(=N)N)C(=O)NCC(=O)O)NC(=O)[C@H](CC(N)=O)NC1=O [d(CH2)5 [D-Phe^2,Ile^ 4]AVP acid, [1-(beta-mercapto-beta,beta-cyclopentamethylenepropionic acid), 2-D-phenylalanine, 4-isoleucine, 9-glycine]-arginine vasopressin] ([dF]FINCPRG-OH; linker N-5 via X1)
[1]
  Anti-ADH ED: 6.4 ± 2.1 nmol/kg
[2]
  Anti-VP ED: 8.0 ± 1.3 nmol/kg

## CC(C)[C@@H]1NC(=O)[C@H](Cc2ccccc2)NC(=O)[C@@H](Cc2ccccc2)NC(=O)CC2(CCCCC2)SSC[C@@H](C(=O)N2CCC[C@H]2C(=O)N[C@@H](CCCNC(=N)N)C(N)=O)NC(=O)[C@H](CC(N)=O)NC1=O [desGly^9 d(CH2)5 [D-Phe^2]VAVP, [1-(beta-mercapto-beta,beta-cyclopentamethylenepropionic acid), 2-D-phenylalanine, 4-valine, 9-desglycine]-arginine vasopressin] ([dF]FVNCPR-NH2; linker N-5 via X1)
[1]
  Anti-ADH ED: 0.58 ± 0.11 nmol/kg
[2]
  Anti-VP ED: 0.47 ± 0.04 nmol/kg

## CCCCNC(=O)CNC(=O)[C@H](CCCNC(=N)N)NC(=O)[C@@H]1CCCN1C(=O)[C@@H]1CSSC2(CCCCC2)CC(=O)N[C@H](Cc2ccccc2)C(=O)N[C@@H](Cc2ccccc2)C(=O)N[C@@H]([C@@H](C)CC)C(=O)N[C@@H](CC(N)=O)C(=O)N1 [[1-(beta-mercapto-beta,beta-cyclopentamethylenepropionic acid), 2-D-phenylalanine, 4-isoleucine, 9-glycine-N-(n-butyl)amide]-arginine vasopressin] ([dF]FINCPRG-NHBu; linker N-5 via X1)
[1]; Table 4, ^+ = mixed
  Anti-ADH Potency ED: 1.5 ± 0.2 nanomoles per kilogram
[2]; Table 4
  Anti-VP Potency ED: 11 ± 2 nanomoles per kilogram

## CCOc1ccc(C[C@H]2NC(=O)CC3(CCCCC3)SSC[C@@H](C(=O)N3CCC[C@H]3C(=O)N[C@@H](CCCNC(=N)N)C(=O)N[C@@H](C)C(=O)NC)NC(=O)[C@H](CC(N)=O)NC(=O)[C@H](C(C)C)NC(=O)[C@H](Cc3ccccc3)NC2=O)cc1 [[1-(beta-mercapto-beta,beta-cyclopentamethylenepropionic acid), 2-D-(O-ethyl)tyrosine, 4-valine, 9-alanine-N-methylamide]-arginine vasopressin] ([dY](Et)FVNCPRA-NHMe; linker N-5 via X1)
[1]; Table 4, ^+ = mixed
  Anti-ADH Potency ED: 0.82 ± 0.11 nanomoles per kilogram
[2]; Table 4
  Anti-VP Potency ED: 0.46 ± 0.05 nanomoles per kilogram

## CC[C@H](C)[C@@H]1NC(=O)[C@H](Cc2ccccc2)NC(=O)[C@@H](Cc2ccc(O)cc2)NC(=O)CC2(CCCCC2)SSC[C@@H](C(=O)N2CCC[C@H]2C(=O)N[C@@H](CCCNC(=N)N)C(=O)NCCN)NC(=O)[C@H](CC(N)=O)NC1=O [[1-beta-mercapto-beta,beta-cyclopentamethylenepropionic acid, 2-D-tyrosine, 4-isoleucine, 8-arginine-N-(beta-amino)ethylamide, 9-desglycinamide] vasopressin] ([dY]FINCPR-Ethylenediamine; linker N-5 via X1)
[1]; Table 4, ^+ = mixed
  Anti-ADH Potency ED: 1.12 ± 0.08 nanomoles per kilogram
[2]; Table 4
  Anti-VP Potency ED: 0.73 ± 0.13 nanomoles per kilogram
